Source: publication PMC12528901
Results are given in words; binding and its absence hold for the method and conditions named. In cells and extracts the contact can be indirect. Some results given as binding are weak or reduced against the parent protein; the word gives no strength. For some of these results: Sequences can lack the tags named with a protein.

Protein sequences, listed by entry. Tags and fused reporters are not part of them. Lines headed by an entry give the natural chain unless they say otherwise; changes in a name come on top. Chains listed by the source or under a name are the forms on record and can include a tag or linker.
UniProt Q8BQQ1: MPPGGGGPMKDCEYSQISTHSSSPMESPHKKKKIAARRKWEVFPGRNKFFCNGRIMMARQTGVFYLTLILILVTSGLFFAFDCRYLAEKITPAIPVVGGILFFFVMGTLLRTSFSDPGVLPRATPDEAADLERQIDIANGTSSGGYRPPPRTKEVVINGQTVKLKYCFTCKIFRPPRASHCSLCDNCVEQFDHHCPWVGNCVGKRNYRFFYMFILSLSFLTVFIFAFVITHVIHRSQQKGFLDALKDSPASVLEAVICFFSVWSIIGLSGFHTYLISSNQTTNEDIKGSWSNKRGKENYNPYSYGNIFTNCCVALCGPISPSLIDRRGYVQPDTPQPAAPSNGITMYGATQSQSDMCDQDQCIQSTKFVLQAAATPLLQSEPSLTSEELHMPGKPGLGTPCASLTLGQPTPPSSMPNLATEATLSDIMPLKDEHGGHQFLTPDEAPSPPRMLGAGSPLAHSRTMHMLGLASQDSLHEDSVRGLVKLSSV
HA-Zdhhc5^ΔDHHC (mouse Zdhhc5 lacking the cytosolic loop with the DHHC active site and cysteine rich domain) (Q8VDZ4, form named): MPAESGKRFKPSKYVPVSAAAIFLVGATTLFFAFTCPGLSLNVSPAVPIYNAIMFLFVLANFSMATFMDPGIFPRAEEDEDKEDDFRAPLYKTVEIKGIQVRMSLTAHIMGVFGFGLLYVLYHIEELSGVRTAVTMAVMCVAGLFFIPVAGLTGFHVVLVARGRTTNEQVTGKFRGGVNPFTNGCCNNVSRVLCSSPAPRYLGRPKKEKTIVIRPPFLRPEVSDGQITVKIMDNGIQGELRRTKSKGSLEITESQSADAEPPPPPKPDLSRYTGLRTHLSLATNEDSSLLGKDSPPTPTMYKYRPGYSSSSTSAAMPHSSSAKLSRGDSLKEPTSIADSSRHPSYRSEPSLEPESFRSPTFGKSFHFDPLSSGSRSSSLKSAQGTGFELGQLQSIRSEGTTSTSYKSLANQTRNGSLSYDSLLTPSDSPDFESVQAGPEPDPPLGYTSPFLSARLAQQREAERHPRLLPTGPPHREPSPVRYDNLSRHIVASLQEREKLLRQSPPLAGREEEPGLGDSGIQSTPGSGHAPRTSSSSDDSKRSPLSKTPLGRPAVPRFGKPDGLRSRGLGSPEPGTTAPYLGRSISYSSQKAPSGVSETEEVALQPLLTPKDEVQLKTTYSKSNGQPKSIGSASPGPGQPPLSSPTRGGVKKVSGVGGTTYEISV
UniProt Q9ESG8: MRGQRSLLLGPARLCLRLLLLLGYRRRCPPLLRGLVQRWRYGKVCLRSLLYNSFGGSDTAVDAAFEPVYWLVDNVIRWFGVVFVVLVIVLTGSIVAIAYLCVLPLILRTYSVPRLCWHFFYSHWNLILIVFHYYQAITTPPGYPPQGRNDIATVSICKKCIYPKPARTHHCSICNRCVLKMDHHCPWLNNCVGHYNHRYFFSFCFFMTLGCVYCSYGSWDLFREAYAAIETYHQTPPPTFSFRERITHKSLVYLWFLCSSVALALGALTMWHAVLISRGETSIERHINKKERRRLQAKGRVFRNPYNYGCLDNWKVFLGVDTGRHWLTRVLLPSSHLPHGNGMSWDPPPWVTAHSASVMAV
UniProt Q7Z5G4: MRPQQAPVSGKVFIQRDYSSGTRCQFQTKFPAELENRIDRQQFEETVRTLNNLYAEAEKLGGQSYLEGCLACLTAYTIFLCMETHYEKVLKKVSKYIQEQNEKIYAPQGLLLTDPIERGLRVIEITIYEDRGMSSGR

Legend:
[1] = biological target: T1, Zdhhc19^RNYR (mouse Zdhhc19 with the RNYR motif and flanking residues installed) (mouse) (UniProt Q810M5); test: co-IP; HA-tagged mouse Zdhhc proteins transfected into 293T ZDHHC5 KO and control cells; lysis in 50 mM Tris-HCl pH 7.4, 150 mM NaCl, 2 mM EDTA, 1% DDM; anti-HA magnetic beads overnight at 4 °C; washes in TBS with 0.5% DDM; blots for endogenous GOLGA7 or ZDHHC9
T1 sequence: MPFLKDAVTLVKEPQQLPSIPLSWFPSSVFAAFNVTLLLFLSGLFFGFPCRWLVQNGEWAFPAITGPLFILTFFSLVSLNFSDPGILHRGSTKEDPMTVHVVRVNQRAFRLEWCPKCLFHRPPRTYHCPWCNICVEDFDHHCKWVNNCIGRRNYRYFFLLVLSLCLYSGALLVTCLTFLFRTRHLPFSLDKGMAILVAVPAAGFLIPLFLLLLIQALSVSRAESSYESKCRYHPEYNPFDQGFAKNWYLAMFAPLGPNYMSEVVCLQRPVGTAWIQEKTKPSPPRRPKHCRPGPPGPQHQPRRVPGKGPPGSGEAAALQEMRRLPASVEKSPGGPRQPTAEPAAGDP

[2] = biological target: T2, HA-tagged mouse Zdhhc23 (mouse) (UniProt Q5Y5T3); test: as above
T2 sequence: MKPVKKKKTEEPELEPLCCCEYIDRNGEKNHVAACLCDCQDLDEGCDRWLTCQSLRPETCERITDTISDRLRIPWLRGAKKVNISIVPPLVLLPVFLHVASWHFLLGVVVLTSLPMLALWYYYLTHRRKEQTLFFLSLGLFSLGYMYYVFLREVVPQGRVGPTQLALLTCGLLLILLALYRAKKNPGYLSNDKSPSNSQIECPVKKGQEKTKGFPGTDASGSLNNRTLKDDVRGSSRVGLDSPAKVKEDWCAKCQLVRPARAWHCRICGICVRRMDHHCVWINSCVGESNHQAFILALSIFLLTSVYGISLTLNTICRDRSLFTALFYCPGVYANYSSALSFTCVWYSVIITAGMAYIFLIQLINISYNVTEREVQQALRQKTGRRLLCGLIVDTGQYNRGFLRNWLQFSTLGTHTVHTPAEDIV

[3] = biological target: T3, HA-tagged mouse Zdhhc4 (mouse) (UniProt Q9D6H5); test: as above
T3 sequence: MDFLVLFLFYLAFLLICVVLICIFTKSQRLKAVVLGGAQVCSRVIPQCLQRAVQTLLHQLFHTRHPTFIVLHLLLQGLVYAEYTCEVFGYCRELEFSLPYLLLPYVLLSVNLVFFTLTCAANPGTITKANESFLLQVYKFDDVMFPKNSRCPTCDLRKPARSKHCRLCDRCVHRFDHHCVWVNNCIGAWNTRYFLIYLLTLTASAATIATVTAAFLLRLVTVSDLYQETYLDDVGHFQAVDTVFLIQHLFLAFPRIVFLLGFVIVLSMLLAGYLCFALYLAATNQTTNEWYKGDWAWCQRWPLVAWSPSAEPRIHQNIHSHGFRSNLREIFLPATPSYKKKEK

[4] = biological target: HA-tagged mouse Zdhhc14 (mouse) (UniProt Q8BQQ1); test: as above
[5] = biological target: HA-Zdhhc5^ΔDHHC (mouse Zdhhc5 lacking the cytosolic loop with the DHHC active site and cysteine rich domain) (mouse) (UniProt Q8VDZ4); test: as above
[6] = biological target: HA-tagged mouse Zdhhc16 (mouse) (UniProt Q9ESG8); test: as above
[7] = biological target: T4, HA-tagged mouse Zdhhc1 (mouse) (UniProt Q8R0N9); test: condition: only in 293T control cells (endogenous ZDHHC5 not disrupted); co-IP; as a1, in unmodified 293T control cells only (endogenous ZDHHC5 present)
T4 sequence: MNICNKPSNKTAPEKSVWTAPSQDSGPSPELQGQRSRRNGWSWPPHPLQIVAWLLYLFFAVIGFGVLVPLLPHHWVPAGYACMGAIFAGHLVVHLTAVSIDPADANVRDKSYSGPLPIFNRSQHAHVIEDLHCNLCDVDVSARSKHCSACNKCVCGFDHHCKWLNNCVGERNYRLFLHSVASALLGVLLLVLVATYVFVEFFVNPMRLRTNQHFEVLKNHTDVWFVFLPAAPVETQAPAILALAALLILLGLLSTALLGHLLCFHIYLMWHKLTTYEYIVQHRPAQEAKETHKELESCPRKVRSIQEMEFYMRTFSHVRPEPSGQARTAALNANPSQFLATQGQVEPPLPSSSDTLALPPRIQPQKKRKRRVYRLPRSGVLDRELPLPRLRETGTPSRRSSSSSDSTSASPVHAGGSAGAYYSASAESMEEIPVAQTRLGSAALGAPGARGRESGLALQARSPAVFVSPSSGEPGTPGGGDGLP

Substance: endogenous human golgin A7 (GOLGA7) (from UniProt Q7Z5G4 1-137)
- binding [1]: no binding
- binding [2]: no binding
- binding [3]: no binding
- binding [4]: binds
- binding [5]: no binding
- binding [6]: no binding
- binding [7]: no binding
